These results are taken from the supplement of paper PMC8948288.

The test system of one data set is GL261. Put plainly: cell viability relative to siNT1 (ATP content); H4 human neuroglioma and GL261 mouse glioma; higher = less toxic. Particulars: siRNA concentration 25 nM; 96 h; mouse.
The test system of a further data set is H4. The description is as above. The settings on record: siRNA concentration 10 nM; 96 h; human.

The sequences are guide strands of siRNAs; only the seed at positions 2 to 7 varies.
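Also: cells reverse transfected with siRNA duplexes via lipid reagent, ATP read by luminescence, triplicate wells, values scaled to mean viability with non-targeting control siNT1.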

A word on the cell viability: it is a read-out of living cells in per cent, often relative to untreated cells. Regarding UGUUGUAACAUGUAAACCA, the cell viability with GL261 was 58.5%; in the data set on H4, 68.6%.
For UGUUGUCACAUGUAAACCA, the cell viability amounted to 27.8% with GL261 and 37.4% with H4.
In the case of UGUUGUGACAUGUAAACCA, the cell viability stood at 36.4% with GL261 and 79.2% with H4.
The like results for UGUUGUUACAUGUAAACCA were, in that order, 32.2% and 59.2%.
The like results for UGUUUAAACAUGUAAACCA were, in that order, 62.1% and 87%.
Turning to UGUUUACACAUGUAAACCA, the cell viability in the data set on GL261 is 69.3%; with H4 it was 105%.
The like results for UGUUUAGACAUGUAAACCA were, in that order, 52.6% and 98.3%.
Consider UGUUUAUACAUGUAAACCA, for which the figures for the cell viability in the data set on GL261 and in the data set on H4 were 66.1% and 97.8%, respectively.
As for UGUUUCAACAUGUAAACCA, the cell viability worked out at 44.9% in the data set on GL261 and 52.4% with H4.
The like results for UGUUUCCACAUGUAAACCA were, in that order, 28% and 24.7%.
The like results for UGUUUCGACAUGUAAACCA were, in that order, 56% and 70.1%.
The like results for UGUUUCUACAUGUAAACCA were, in that order, 57.9% and 61.4%.
For UGUUUGAACAUGUAAACCA, the cell viability in the data set with GL261 amounted to 41.8%; in the data set on H4, 88.5%.
The like results for UGUUUGCACAUGUAAACCA were, in that order, 61.9% and 94.3%.
For the sequence UGUUUGGACAUGUAAACCA, the cell viability with GL261 was 38.2%; with H4, 60.2%.
Turning to UGUUUGUACAUGUAAACCA, the cell viability was determined as 10.6% with GL261 and 85.8% with H4.
The like results for UGUUUUAACAUGUAAACCA were, in that order, 49.1% and 83.4%.
The like results for UGUUUUCACAUGUAAACCA were, in that order, 60.2% and 80.9%.
The like results for UGUUUUGACAUGUAAACCA were, in that order, 59% and 89.9%.
As to UGUUUUUACAUGUAAACCA, the cell viability is 57.3% in the data set on GL261 and 87.6% with H4.
The like results for UUAAAAAACAUGUAAACCA were, in that order, 55.7% and 109%.
The like results for UUAAAACACAUGUAAACCA were, in that order, 60.8% and 83.9%.
On to UUAAAAGACAUGUAAACCA, for which the cell viability with GL261 is 76.5%; with H4, 103%.
The like results for UUAAAAUACAUGUAAACCA were, in that order, 50.1% and 104%.
The like results for UUAAACAACAUGUAAACCA were, in that order, 70.8% and 98.9%.
In the case of UUAAACCACAUGUAAACCA, the cell viability in the data set with GL261 turned out to be 50.4%; in the data set with H4, 27.3%.
The like results for UUAAACGACAUGUAAACCA were, in that order, 59.6% and 80.5%.
Turning to UUAAACUACAUGUAAACCA, the cell viability amounted to 39.7% in the data set with GL261 and 71.1% in the data set on H4.
On to UUAAAGAACAUGUAAACCA, for which the cell viability in the data set with GL261 came out at 60.6%; with H4, 115%.
The like results for UUAAAGCACAUGUAAACCA were, in that order, 28.9% and 36.7%.
The like results for UUAAAGGACAUGUAAACCA were, in that order, 50.1% and 67.2%.
The like results for UUAAAGUACAUGUAAACCA were, in that order, 46.2% and 43.2%.
With UUAAAUAACAUGUAAACCA, the cell viability in the data set with GL261 came out at 64.7%; in the data set on H4, 94.3%.
The like results for UUAAAUCACAUGUAAACCA were, in that order, 40% and 67.9%.
For the sequence UUAAAUGACAUGUAAACCA, the cell viability with GL261 was 74.8%; in the data set with H4 it was 89.8%.
The like results for UUAAAUUACAUGUAAACCA were, in that order, 64.9% and 83%.
The like results for UUAACAAACAUGUAAACCA were, in that order, 56.7% and 77.4%.
The like results for UUAACACACAUGUAAACCA were, in that order, 45% and 73.7%.
On to UUAACAGACAUGUAAACCA, for which the cell viability worked out at 46.8% in the data set on GL261 and 86.4% with H4.
The like results for UUAACAUACAUGUAAACCA were, in that order, 62.7% and 70.2%.
Take UUAACCAACAUGUAAACCA: the cell viability with GL261 amounted to 40%; in the data set with H4 it was 92.6%.
The like results for UUAACCCACAUGUAAACCA were, in that order, 35.8% and 51.2%.
The like results for UUAACCGACAUGUAAACCA were, in that order, 51.7% and 72.6%.
On to UUAACCUACAUGUAAACCA, for which the results for the cell viability in the data set with GL261 and in the data set on H4 were 46.9% and 58.8%, respectively.
The like results for UUAACGAACAUGUAAACCA were, in that order, 80.6% and 70%.
The like results for UUAACGCACAUGUAAACCA were, in that order, 60.9% and 68.6%.
The like results for UUAACGGACAUGUAAACCA were, in that order, 76.6% and 82%.
With UUAACGUACAUGUAAACCA, the cell viability with GL261 came out at 62.4%; with H4, 86.8%.
The like results for UUAACUAACAUGUAAACCA were, in that order, 59.5% and 97.8%.
As to UUAACUCACAUGUAAACCA, the cell viability in the data set with GL261 was determined as 57.1%; in the data set with H4 it was 67.8%.
With UUAACUGACAUGUAAACCA, the results for the cell viability with GL261 and in the data set on H4 were 79.5% and 90.2%, respectively.
The like results for UUAACUUACAUGUAAACCA were, in that order, 41.5% and 76.1%.
The like results for UUAAGAAACAUGUAAACCA were, in that order, 52.4% and 84.6%.
The like results for UUAAGACACAUGUAAACCA were, in that order, 23% and 19.5%.
For UUAAGAGACAUGUAAACCA, the cell viability in the data set on GL261 stood at 45%; in the data set with H4 it was 78.8%.
Regarding UUAAGAUACAUGUAAACCA, the cell viability in the data set on GL261 was determined as 39.8%; in the data set on H4, 59.8%.
The like results for UUAAGCAACAUGUAAACCA were, in that order, 46.3% and 67%.
The like results for UUAAGCCACAUGUAAACCA were, in that order, 13.7% and 20.9%.
The like results for UUAAGCGACAUGUAAACCA were, in that order, 46.7% and 80.6%.
In the case of UUAAGCUACAUGUAAACCA, the results for the cell viability in the data set on GL261 and in the data set on H4 were 36% and 35.4%, respectively.
The like results for UUAAGGAACAUGUAAACCA were, in that order, 43.5% and 97.6%.
On to UUAAGGCACAUGUAAACCA, for which the cell viability with GL261 was 64.1%; in the data set with H4 it was 36.6%.
For UUAAGGGACAUGUAAACCA, the cell viability worked out at 44.4% with GL261 and 72.6% in the data set with H4.
The like results for UUAAGGUACAUGUAAACCA were, in that order, 28.6% and 67.1%.
The like results for UUAAGUAACAUGUAAACCA were, in that order, 51.1% and 105%.
